The structures appear in SMILES notation. The list shows a part of the results.

This assay has as its system T1, C. trachomatis L2/434/Bu expressing GFP (CTL2-GFP).
T1 construct: L2/434/Bu GFP intracellular growth in HeLa cells
More on the design: species or system HeLa; C. trachomatis total inclusion area by high-content imaging, normalised to DMSO. The conditions noted are these: total inclusion area; 28.5 h, 10 µM; inhibitor. Summed up:
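After bulk GFP and resorufin fluorescence reads, cells were fixed, stained with Hoechst and imaged by high-content microscopy. Inclusion area and number (GFP) stood in for chlamydial growth, nuclei count (Hoechst) for host cell viability. MICs were derived as for the bulk readout.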
For the compound `CS(=O)(=O)Nc1cccc(C(=O)O)c1` [CBK160404], the “% of control remaining” value was 81.8973.
As to `O=c1[nH]c(=O)c2cc(S(=O)(=O)NC3(c4ccccc4)CCCC3)ccc2[nH]1` [CBK286378], the “% of control remaining” value came out at 99.8765.
As for `Cc1ccccc1N1CCC(CNC(=O)CCc2ccnn2C)C1` (centres unmarked) [CBK306543], the figure is 85.9985; as for `Cc1cc(C(=O)NCCn2ccc(C)n2)c2cccc(Cl)c2n1` [CBK282549], 98.5765; as for `Cc1nn(C)cc1C(=O)N1CCC2(C/C=C/CCOc3ccccc3C(=O)NCCCNC2=O)CC1` [CBK292154], 83.1734.
For `O=C1Cc2c(ccc3ccccc23)C2(CCN(CC3CCCCO3)CC2)N1` (centres unmarked) [CBK039395] the value was 89.8266; for `N/C(=N\C(=O)CN1C(=O)C2CCCCC2C1=O)Nc1nc2ccccc2s1` (centres unmarked) [CBK263877], 85.7782; for `O=C(c1ccccc1)c1nnsc1-c1ccccc1` [CBK008193], 43.0971.
On to `C#CCNC(=O)c1nn(Cc2ccc(S(=O)(=O)N(C)OC)cc2)c2ccccc12` [CBK047985], for which the “% of control remaining” value is on record as 90.4174.
For `COc1ccccc1C1OC(=O)CC1C(=O)N1CCN(c2ccc(C(F)(F)F)cc2)CC1` (centres unmarked) [CBK091313] the value was 109.169; for `Cn1c(CNc2ccc(C(=O)O)cc2)nc2ccccc21` [CBK262501], 101.286.
For `O=C1COc2ccccc2C/C=C/C[C@H]2CN(C(=O)c3noc4c3CCCC4)CC[C@H]2N1` [CBK292099] the value was 103.757.
As for `Cc1nc2ccccc2c(C)c1CC(=O)N(C)Cc1cnn(C)c1` [CBK304895], the figure is 87.2522.
For `CC(=O)N1CCC2(CCCC[C@H]3CN(Cc4coc(C)n4)CC[C@@H]3NC(=O)CNC2=O)CC1` [CBK292165], the “% of control remaining” value was 103.812.
For `COC(=O)c1cccc2c1ncc1c(=O)nc(N)sc12` [CBK291214] the value was 96.9475; for `NS(=O)(=O)c1ccc(NC(=O)CSc2ccc3ccccc3c2)cc1` [CBK268203], 88.2618.
For `O=P(O)(CN1CCCCCC1)CN1CCCCCC1` [CBK262311] the value was 89.878.
As for `O=S(=O)(c1ccccc1)c1nc(-c2ccco2)oc1NCc1cccnc1` [CBK287610], the “% of control remaining” value came out at 80.5198.
As for `CCc1cc(O)n2nc(C)c(-c3cccs3)c2n1` [CBK283730], the figure is 94.5011; as for `O=[N+]([O-])c1ccccc1CN1CCN(Cc2cccc(Oc3ccccc3)c2)CC1` [CBK264307], 100.001; as for `O=C(CC1c2ccccc2Oc2ccccc21)Nc1ccc(Cc2ccncc2)cc1` [CBK263271], 59.4401.
As for `CC(C)c1ccc(S(=O)(=O)Nc2cc(F)c(F)c(F)c2)cc1` [CBK045028], the figure is 57.3966.
As for `O=C1CSC2(CCCCC2)N1Nc1ccccc1` [CBK020047], the figure is 104.148.
In the case of `O=C(Nc1ccccc1)NC1CC2CCC(C1)N2Cc1nnnn1Cc1ccco1` (centres unmarked) [CBK085071], the “% of control remaining” value is given as 101.805.
As for `C[C@]12CN(C(=O)C3CC3)C[C@H]1NC(=O)c1ccccc1C2=O` [CBK281660], the figure is 104.928.
As for `COc1ccc(CC(=O)N2CCC(c3cccc(Cc4ccccc4C)n3)CC2)cc1` [CBK286232], the figure is 86.8493.
For `NNC(=O)Nc1ccc(Cc2ccc(NC(=O)NN)cc2)cc1` [CBK262017] the value was 110.66; for `COc1ccc([C@H]2CN(C(C)=O)[C@@H]3CCN(CC4CC4)C[C@H]23)cc1` [CBK285502], 83.4223; for `CC(Sc1ccccc1)C(=O)NCCN1CCOCC1` (centres unmarked) [CBK269332], 104.706.
`Cc1noc(C)c1S(=O)(=O)NCc1cc(C)n(C)n1` [CBK062155]: the “% of control remaining” value is given as 82.058.
For `CC(=O)Nc1ccc(S(=O)(=O)Nc2ccc(C(=O)N3CCOCC3)cc2)cc1` [CBK034564] the value was 58.3487.
For `COCC(=O)N1CC[C@H](c2nnc(-c3ccc(C)cc3)o2)C1` [CBK289410] the value was 76.4404; for `CC(C)(C)OC(=O)N1CCN(c2ccnc(Cl)n2)CC1` [CBK002095], 114.454; for `COC(=O)NC(NC(=O)OC)C(=O)c1ccccc1` [CBK020208], 75.6289.
On to `COc1ncccc1-c1cccnc1-n1ccnc1` [CBK176872], for which the “% of control remaining” value worked out at 90.0373.
As for `CCc1c(C)nc2c(C(=O)NCCOC)cnn2c1C` [CBK162143], the figure is 92.9964; as for `CCOc1ccc(-c2cncc(N[C@@H](C)c3ccccc3)n2)cc1` [CBK065720], 101.645.
For `Cc1c(C(=O)NC2CCCN(c3ncccn3)C2)cnn1C(C)(C)C` (centres unmarked) [CBK305652] the value was 89.0533.
As for `Cc1c(C(=O)Nc2sc3c(c2C(=O)NCc2cccnc2)CCC3)oc2ccccc12` [CBK269491], the figure is 122.101; as for `CN(C)CCN(C)c1cccc(/C=C/c2ccccc2)n1` [CBK036826], 125.405.
In the case of `CC(=O)Nc1cccc(C(=O)OCC(=O)N2CCC(C)CC2)c1` [CBK305905], the “% of control remaining” value came out at 104.363.
As for `Cc1ccc(-n2c(SCC(=O)Nc3ccccc3C#N)nnc2-c2cc(Br)ccc2O)c(C)c1` [CBK268743], the figure is 58.2834; as for `O=c1c(-c2nc3ccccc3s2)coc2c(CN3CCCCC3)c(O)ccc12` [CBK262161], 94.692.
`COC1C(O)C(CO)OC1n1cc(F)c(=S)[nH]c1=O` (centres unmarked) [CBK201168]: the “% of control remaining” value stood at 124.629.
As to `Cc1ccc2c(c1)cc(C(=O)N1CCC(C(=O)NCCc3ccc(Cl)cc3)C1)n2C` (centres unmarked) [CBK285926], the “% of control remaining” value is listed as 105.092.
For the compound `O=C(C[C@@H]1O[C@H](CNS(=O)(=O)c2ccccc2)[C@@H](O)[C@H]1O)N1CCc2ccccc21` [CBK288916], the “% of control remaining” value was 112.285.
For `CCOc1cc(/C=N/O)c(Br)cc1O` [CBK288359] the value was 93.3464.
In the case of `Cc1nnc(SCc2cc(=O)[nH]c(N3CCN(C)CC3)n2)s1` [CBK270106], the “% of control remaining” value is recorded as 100.913.
For `Oc1ccc(-c2cncc(-c3ccc(F)cc3)n2)cc1` [CBK123794] the value was 103.788.
For `c1ccc(-c2onc3cc4c(cc23)OCCO4)cc1` [CBK287869] the value was 81.8745.
For `CCCc1nnc2sc(C3CCC(=O)N(CC(C)C)C3)nn12` (centres unmarked) [CBK307207] the value was 67.6681; for `CC(Sc1nc2ccccc2[nH]1)C(=O)O` (centres unmarked) [CBK263063], 86.0572; for `O=C(Cc1ccccc1F)N1CCC(n2cnc3cccnc32)CC1` [CBK283635], 108.823.
Turning to `NS(=O)(=O)c1ccc(NCc2ccccc2OCc2ccccc2F)cc1` [CBK268935], the “% of control remaining” value is reported as 86.3071.
For `COc1ccc(-c2ccc(OC)cc2C(=O)Nc2cccc(-n3cccn3)c2)cc1` [CBK285818] the value was 117.418; for `COCC(=O)Nc1ccc([C@@H](O)[C@H]2COCC(=O)N2C)cc1` [CBK289058], 116.058; for `COC(=O)Nc1ncc(CN2C(=O)c3ccccc3C2=O)s1` [CBK268434], 85.4436.
As for `CC(=O)Nc1ccc(C(=O)Nc2ccc(S(N)(=O)=O)cc2)cc1` [CBK261600], the figure is 105.806; as for `CCOC(=O)N/N=C1\CCCCC1CC` (centres unmarked) [CBK016112], 90.3281; as for `CC(=O)N1CCC[C@H]2NC(=O)CNC(=O)C3(C/C=C/C[C@H]21)CCN(Cc1cc[nH]n1)CC3` [CBK292164], 107.235.
As for `CCn1cc(C(=O)O)c(=O)c2cnc(N3CCN(C(=S)Nc4ccc5c(c4)OCO5)CC3)nc21` [CBK267930], the figure is 92.0283; as for `CN1CCN(C)C(COc2nc3cc(Cl)c(Cl)cc3nc2N2CCCC2)C1` (centres unmarked) [CBK115294], 94.5856; as for `COc1ccc(Oc2nccnc2N2CCN(CCOc3ccccc3)CC2)cc1OC` [CBK083061T], 97.2551.
As for `COc1cc(NC(=O)N2CCC(C(=O)O)CC2)cc(OC)c1OC` [CBK156076], the “% of control remaining” value stood at 80.0431.
As for `CCCOc1ccc(-c2nn(-c3ccccc3)cc2/C=C2\SC(=S)N(CC(=O)O)C2=O)cc1` [CBK264525], the figure is 107.259; as for `Cc1cc(C(=O)N2CCc3c(sc4ncnc(N)c34)C2)c(C)s1` [CBK304980], 46.225; as for `COc1ccc(C(C)C)cc1-c1nccnc1N[C@@H](CO)C(C)C` [CBK036711], 101.511.
As for `Cc1ccccc1Cc1cccc(C2CCN(S(=O)(=O)c3cn(C)nc3C)CC2)n1` [CBK286141], the figure is 128.766; as for `C=CCNC(=O)c1ccc(-c2cccc(N(C)C)c2)nc1NCc1cccnc1` [CBK076566], 130.156; as for `O=C1CC2(CCC3C(C(=O)N4CCCCC4)C32)Oc2ccccc21` (centres unmarked) [CBK284947], 86.547.
As for `CN1CCC(OCCCn2ccnc2-c2ccccc2C(=O)O)CC1` [CBK307188], the figure is 73.8609; as for `Nc1ncc(-c2cc(C(F)(F)F)cc(C(F)(F)F)c2)nc1Nc1ccc2[nH]ccc2c1` [CBK063651], 61.1603; as for `COCC1(C(=O)N2CCN(c3ccccc3C#N)CC2)CCC1` [CBK304361], 36.3655.
Consider `CC(=O)Nc1cccc(/C(C)=N/NC(=O)c2ccc(CN3CCOCC3)cc2)c1` [CBK262746], for which the “% of control remaining” value is reported as 102.553.
As for `COc1ccc(C2CC(=O)C(=CNCCCN3CCOCC3)C(=O)C2)cc1` (centres unmarked) [CBK263647], the figure is 110.358.
For `Brc1nc2c3c(nc(N4CCOCC4)c2s1)CCCC3` [CBK019604] the value was 87.4433.
With `O=C(C[n+]1cccc(C(=O)N/N=C/c2ccc(Br)cc2)c1)c1ccccc1` [CBK262063B], the “% of control remaining” value turned out to be 95.5665.
As for `CC(=O)c1c(C)c2c(=O)n3c(nc2[nH]c1=O)CCC3` [CBK287872], the figure is 100.32; as for `COc1ccccc1N1CCN(CCC(=O)Nc2ccccc2F)CC1` [CBK264313], 98.6858; as for `S=c1[nH]nc2ccc(N3CCOCC3)nn12` [CBK008327], 95.408.

The record behind these values is PMC12040169 (PLOS Biology, 2025).
